# Values joined by “and” are separate entries in the source; they are usually repeats but may differ in a detail not shown here. Equal values may be shown once. The shares of active, inactive and inconclusive entries below differ from those in the screen. Potencies of inconclusive entries are doubtful fits and often do not repeat. Where a structure was tested more than once in an assay, its records may differ in their call. Active and inactive are the calls of the source. Unless noted, calls come from the whole dose curve; as a rule, active = well fitted curve in the direction sought with a large enough effect in the repeat runs; inconclusive = weak or mixed curves; inactive = no such curve, though single readings can be large; an effect the other way counts as inactive or inconclusive.
# Key:
# [1] = A CellTox Green Cytotoxicity Assay to monitor cytotoxicity in HepG2 cells - 24 hour (AID 1224878); note: nearly all actives have a fitted effect of over 45% in size
# Outline: (§1)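 Real-time cytotoxicity: fluorescence of a cell-impermeant cyanine dye binding DNA of dead HepG2 cells, measured repeatedly (0–40 h) during compound exposure at 37 C. Cells seeded 600/well with reagent, dosed after 5 h.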
# [2] = A CellTox Green Cytotoxicity Assay to monitor cytotoxicity in HepG2 cells - 40 hour (AID 1224879); note: nearly all actives have a fitted effect of over 40% in size
# Outline: as §1
# [3] = A CellTox Green Cytotoxicity Assay to monitor cytotoxicity in HepG2 cells - 32 hour (AID 1224883); note: nearly all actives have a fitted effect of over 50% in size
# Outline: as §1
# [4] = A CellTox Green Cytotoxicity Assay to monitor cytotoxicity in HEK293 cells - 32 hour (AID 1224881); note: nearly all actives have a fitted effect of over 40% in size
# Outline: (§2)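 Fluorescence from a DNA-binding dye excluded by viable cells was measured repeatedly in the same HEK293 wells (600 cells/well) during continuous compound exposure at 37 C. Each assay gives one read point: 0, 8, 16, 24, 32 or 40 h.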
# [5] = qHTS RealTime-Glo MT Cell Viability Assay in HepG2 cells - 16 hour (AID 1224885); note: nearly all actives have a fitted effect of over 50% in size
# Outline: (§3)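 Compound treatment began 5 h after plating HepG2 cells (600/well) with NanoLuc luciferase and prosubstrate. Plates stayed at 37 C for 40 h; luminescence was captured at six time points, 0 h through 40 h.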
# [6] = qHTS RealTime-Glo MT Cell Viability Assay in HEK293 cells - 24 hour (AID 1224886); note: nearly all actives have a fitted effect of over 50% in size
# Outline: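 Quantitative high-throughput screen of the Tox21 10K library in HEK293: cells and RealTime-Glo reagents plated together, compound added at 5 h, luminescence monitored through 40 h at 37 C.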
# [7] = qHTS RealTime-Glo MT Cell Viability Assay in HEK293 cells - 8 hour (AID 1224887); note: nearly all actives have a fitted effect of over 50% in size
# Outline: (§4)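 Luminescence, which tracks viable cell number through reduction of the prosubstrate to a NanoLuc substrate, was read over continuous 37 C culture. Cells (600/well) were premixed with reagent and rested 5 h before 23 nL of compound in DMSO was pinned.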
# [8] = qHTS RealTime-Glo MT Cell Viability Assay in HepG2 cells - 32 hour (AID 1224877); note: nearly all actives have a fitted effect of over 55% in size
# Outline: as §3
# [9] = qHTS assay to identify small molecule antagonists of the estrogen receptor alpha (ER-alpha) signaling pathway using the BG1 cell line in the presence of 0.1 nM 17-beta-estradiol - cell viability counter screen (AID 1259241); note: nearly all actives have a fitted effect of over 40% in size
# Outline: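 Cytotoxicity counter-screen: live-cell protease activity measured by fluorescence (30 min reagent step) in the same wells. Cells were VM7Luc4E2 with endogenous ER-alpha and ERE-driven luciferase, treated 22 hr at 37C alongside 0.1 nM 17beta-estradiol final.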
# [10] = biological target: Estrogen receptor (Homo sapiens) (UniProt P03372); test: qHTS assay to identify small molecule antagonists of the estrogen receptor alpha (ER-alpha) signaling pathway using the BG1 cell line in the presence of 0.1 nM 17-beta-estradiol (AID 1259244); note: nearly all actives have a fitted effect of over 50% in size
# Outline: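 Luciferase luminescence (ONE-Glo, 30 min at room temperature) was read after 22 hr at 37C exposure to compounds plus 17beta-estradiol at 0.1 nM final. Cells were VM7Luc4E2 with endogenous ER-alpha and an ERE-driven luciferase, pre-cultured 5 days in hormone-depleted medium.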
# [11] = qHTS RealTime-Glo MT Cell Viability Assay in HepG2 cells - 0 hour (AID 1224889); note: nearly all actives have a fitted effect of over 50% in size
# Outline: as §3
# [12] = qHTS assay to identify small molecule phospholipidosis (PLD) inducers (AID 1259344; active = well fitted curve in the direction sought with a large enough effect; inconclusive = small, poorly fitted or top-dose-only effect, or another doubt; inactive = no such curve, though single readings can be large; an effect the other way counts as inactive or inconclusive)
# Outline: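 After 4 h attachment on collagen I, HepG2 cells were dosed with compound alongside LipidTOX Red, kept 24 h at 37 C, fixed, and imaged for lamellar phospholipid pits.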
# [13] = A CellTox Green Cytotoxicity Assay to monitor cytotoxicity in HEK293 cells - 8 hour (AID 1224884); note: nearly all actives have a fitted effect of over 35% in size
# Outline: as §2
# [14] = A CellTox Green Cytotoxicity Assay to monitor cytotoxicity in HEK293 cells - 16 hour (AID 1224888); note: nearly all actives have a fitted effect of over 35% in size
# Outline: as §2
# [15] = qHTS assay to identify small molecule antagonists of the androgen receptor (AR) signaling pathway using the MDA cell line in the presence of 0.5 nM R1881 - cell viability counter screen (AID 1259242); note: nearly all actives have a fitted effect of over 45% in size
# Outline: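 Live-cell protease activity was measured by CellTiter-Fluor fluorescence after 30 min. Before that, MDA-kb2 MMTV-luciferase cells had 16 hr at 37C without CO2, exposed to test compounds and 0.5 nM R1881 final.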
# [16] = qHTS RealTime-Glo MT Cell Viability Assay in HEK293 cells - 0 hour (AID 1224880); note: nearly all actives have a fitted effect of over 45% in size
# Outline: as §4
# [17] = A CellTox Green Cytotoxicity Assay to monitor cytotoxicity in HepG2 cells - 0 hour (AID 1224882); note: nearly all actives have a fitted effect of over 35% in size
# Outline: as §1
# [18] = A CellTox Green Cytotoxicity Assay to monitor cytotoxicity in HepG2 cells - 8 hour (AID 1224890); note: nearly all actives have a fitted effect of over 45% in size
# Outline: as §1
# [19] = biological target: Androgen receptor (Homo sapiens) (UniProt P10275); test: qHTS assay to identify small molecule antagonists of the androgen receptor (AR) signaling pathway using the MDA cell line in the presence of 0.5 nM R1881 (AID 1259243); note: nearly all actives have a fitted effect of over 50% in size
# Outline: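 Luminescent reporter readout (ONE-Glo, 30 min, room temperature) after 16 hr co-treatment of MDA-kb2 cells with test compounds and 0.5 nM R1881 final, at 37C without CO2. The MMTV-driven luciferase responds to both AR and GR.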
# Potency is the fitted concentration of half-maximal effect; tags give direction and shape of the fitted curve.
# UniProt P10275, sequence (P10275 whole entry, looked up): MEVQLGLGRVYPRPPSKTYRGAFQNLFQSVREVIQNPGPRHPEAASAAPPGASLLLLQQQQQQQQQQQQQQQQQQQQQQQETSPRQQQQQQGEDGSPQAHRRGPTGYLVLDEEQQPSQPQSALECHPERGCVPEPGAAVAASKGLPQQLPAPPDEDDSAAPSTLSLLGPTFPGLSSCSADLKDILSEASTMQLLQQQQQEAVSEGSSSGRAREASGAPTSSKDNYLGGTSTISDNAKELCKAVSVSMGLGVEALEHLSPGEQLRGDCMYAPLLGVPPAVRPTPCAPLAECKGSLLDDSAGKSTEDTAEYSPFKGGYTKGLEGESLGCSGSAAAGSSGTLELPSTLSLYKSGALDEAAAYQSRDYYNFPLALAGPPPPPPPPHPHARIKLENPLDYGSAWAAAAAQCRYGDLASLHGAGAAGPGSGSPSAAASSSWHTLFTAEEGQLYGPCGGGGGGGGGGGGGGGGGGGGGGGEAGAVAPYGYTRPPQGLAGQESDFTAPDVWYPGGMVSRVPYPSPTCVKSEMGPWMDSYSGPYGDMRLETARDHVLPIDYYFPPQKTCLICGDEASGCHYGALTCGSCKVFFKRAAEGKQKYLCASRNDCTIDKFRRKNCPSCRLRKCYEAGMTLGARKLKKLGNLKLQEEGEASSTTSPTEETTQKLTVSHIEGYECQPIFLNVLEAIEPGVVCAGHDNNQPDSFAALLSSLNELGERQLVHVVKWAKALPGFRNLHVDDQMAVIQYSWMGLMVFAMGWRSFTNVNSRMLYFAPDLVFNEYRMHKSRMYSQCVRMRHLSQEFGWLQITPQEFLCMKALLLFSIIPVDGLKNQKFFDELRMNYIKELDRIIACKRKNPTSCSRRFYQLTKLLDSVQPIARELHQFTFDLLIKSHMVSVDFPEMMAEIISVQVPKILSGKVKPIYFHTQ
# UniProt P03372, sequence (P03372 whole entry, looked up): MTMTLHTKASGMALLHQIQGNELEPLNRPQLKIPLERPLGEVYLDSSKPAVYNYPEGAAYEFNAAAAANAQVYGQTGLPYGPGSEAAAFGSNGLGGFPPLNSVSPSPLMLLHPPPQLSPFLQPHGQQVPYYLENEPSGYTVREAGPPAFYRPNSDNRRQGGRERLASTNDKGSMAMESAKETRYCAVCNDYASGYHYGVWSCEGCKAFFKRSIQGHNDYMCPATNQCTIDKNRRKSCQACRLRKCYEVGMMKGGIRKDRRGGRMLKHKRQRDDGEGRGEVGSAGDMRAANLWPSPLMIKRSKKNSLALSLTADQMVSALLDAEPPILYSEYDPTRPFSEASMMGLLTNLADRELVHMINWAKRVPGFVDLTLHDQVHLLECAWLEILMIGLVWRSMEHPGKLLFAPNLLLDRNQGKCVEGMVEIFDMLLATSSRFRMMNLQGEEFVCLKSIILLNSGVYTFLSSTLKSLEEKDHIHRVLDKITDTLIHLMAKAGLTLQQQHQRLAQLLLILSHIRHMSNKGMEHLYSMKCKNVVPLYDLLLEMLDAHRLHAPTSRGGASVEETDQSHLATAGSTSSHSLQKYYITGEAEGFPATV
compound,measurement,setting,value
CC(C)NCC(O)c1ccccc1Cl (stereo unspecified),Potency,[1],inactive
CCOP(=O)(OCC)SCCSCC,Potency,[1],"inconclusive: 43.6 µM [activator, partial curve, poor fit]"
same,Potency,[2],"inconclusive: 54.9 µM [activator, partial curve, poor fit]"
CCCCCCCCC(=O)NCc1ccc(O)c(OC)c1,Potency,[1],"inconclusive: 54.9 µM [activator, single point]"
same,Potency,[2],"inconclusive: 54.9 µM [activator, single point]"
same,Potency,[3],"inconclusive: 54.9 µM [activator, single point]"
CCCC(Cn1cncn1)c1ccc(Cl)cc1Cl (stereo unspecified),Potency,[1],"inconclusive: 49 µM [activator, single point]"
same,Potency,[2],"inconclusive: 49 µM [activator, single point]"
same,Potency,[4],"inconclusive: 61.6 µM [activator, single point]"
same,Potency,[3],active: 49 µM
same,Potency,[5],"inconclusive: 54.9 µM [cytotoxic, partial curve, poor fit]"
same,Potency,[6],active: 21.9 µM
same,Potency,[7],"inconclusive: 34.7 µM [cytotoxic, partial curve]"
CCCOC(=O)c1ccccc1C(=O)OCCC,Potency,[1],inactive
CCCCC(C#N)(Cn1cncn1)c1ccc(Cl)cc1 (stereo unspecified),Potency,[1],"inconclusive: 61.6 µM [activator, partial curve, poor fit]"
same,Potency,[2],"inconclusive: 48.8 µM [activator, partial curve] and inconclusive: 54.9 µM [activator, single point]"
same,Potency,[4],"inconclusive: 0.0014 µM [activator, full curve, poor fit]"
same,Potency,[3],"inconclusive: 48.8 µM [activator, partial curve, poor fit] and inconclusive: 54.9 µM [activator, single point]"
same,Potency,[6],"inconclusive: 43.5 µM [cytotoxic, partial curve]"
CC(C(O)c1ccccc1)N(C)C/C=C/c1ccccc1 (stereo unspecified),Potency,[1],"inconclusive: 26.8 µM [activator, single point]"
same,Potency,[2],"inconclusive: 30.1 µM [activator, single point]"
O=[N+]([O-])O.O=[N+]([O-])O.[Cd],Potency,[8],"inconclusive: 54.9 µM [cytotoxic, partial curve, poor fit]"
same,Potency,[9],"inconclusive: 68.6 µM [cytotoxic, partial curve, poor fit]"
[N-]=[N+]=[N-],Potency,[8],inactive
same,Potency,[10],"inconclusive: 7.44 µM [inhibitor, partial curve]"
Cc1ncc(CNC(=O)N(CCCl)N=O)c(N)n1,Potency,[8],inactive
same,Potency,[11],inactive
same,Potency,[12],inactive
O=C/C=C/c1ccco1,Potency,[1],inactive
CCCCCCCCCCCCCl,Potency,[1],active: 12.3 µM
same,Potency,[2],active: 12.3 µM
same,Potency,[4],active: 19.5 µM
same,Potency,[13],active: 19.5 µM
same,Potency,[6],inactive
Cc1cc(C(C)(C)c2ccc(O)c(C)c2)ccc1O,Potency,[1],"inconclusive: 58.7 µM [activator, partial curve, poor fit]"
same,Potency,[2],"inconclusive: 52.3 µM [activator, single point]"
same,Potency,[4],"inconclusive: 58.7 µM [activator, single point]"
same,Potency,[3],"inconclusive: 52.3 µM [activator, single point]"
same,Potency,[13],"inconclusive: 58.7 µM [activator, single point]"
same,Potency,[14],"inconclusive: 52.3 µM [activator, single point]"
same,Potency,[15],"inconclusive: 65.3 µM [cytotoxic, partial curve, poor fit]"
II,Potency,[1],active: 34.7 µM
same,Potency,[2],active: 38.9 µM
same,Potency,[16],"inconclusive: 43.6 µM [falling, partial curve, poor fit]"
same,Potency,[4],active: 38.9 µM
same,Potency,[7],inactive
COP(=S)(Oc1cc(Cl)c(Br)cc1Cl)c1ccccc1 (stereo unspecified),Potency,[1],"inconclusive: 21.9 µM [activator, single point]"
same,Potency,[2],"inconclusive: 21.9 µM [activator, single point]"
same,Potency,[17],"inconclusive: 21.9 µM [activator, single point]"
same,Potency,[3],"inconclusive: 24.5 µM [activator, single point]"
same,Potency,[6],"inconclusive: 21.9 µM [cytotoxic, partial curve]"
same,Potency,[7],"inconclusive: 54.9 µM [cytotoxic, single point]"
same,Potency,[11],"inconclusive: 61.6 µM [cytotoxic, single point]"
same,Potency,[18],"inconclusive: 21.9 µM [activator, single point]"
CCOP(=O)(SC(C)CC)N1CCSC1=O (stereo unspecified),Potency,[1],inactive
COc1nn(CSP(=S)(OC)OC)c(=O)s1,Potency,[1],"inconclusive: 61.6 µM [activator, partial curve, poor fit]"
same,Potency,[2],"inconclusive: 43.6 µM [activator, partial curve, poor fit]"
same,Potency,[3],inconclusive: 54.9 µM [activator]
COC(=O)C(C)N(C(=O)Cc1ccccc1)c1c(C)cccc1C (stereo unspecified),Potency,[1],"inconclusive: 49 µM [activator, single point]"
same,Potency,[2],"inconclusive: 49 µM [activator, single point]"
same,Potency,[16],"inconclusive: 24.5 µM [falling, partial curve, poor fit]"
same,Potency,[4],inactive
same,Potency,[3],"inconclusive: 49 µM [activator, single point]"
same,Potency,[6],"inconclusive: 38.9 µM [cytotoxic, partial curve, poor fit]"
same,Potency,[7],"inconclusive: 61.6 µM [cytotoxic, single point]"
same,Potency,[11],active: 21.9 µM
same,Potency,[15],inactive
same,Potency,[19],"inconclusive: 61.1 µM [inhibitor, single point]"
CCCCN(CCCC)C(=S)S,Potency,[1],"inconclusive: 54.9 µM [activator, single point]"
same,Potency,[2],"inconclusive: 54.9 µM [activator, single point]"
same,Potency,[3],"inconclusive: 54.9 µM [activator, single point]"
same,Potency,[13],inactive
Cc1ccccc1,Potency,[1],inactive
Clc1ccc(C(OCCN2CCCCC2)c2ccccc2)cc1 (stereo unspecified),Potency,[1],"inconclusive: 26.8 µM [activator, single point]"
same,Potency,[2],"inconclusive: 26.8 µM [activator, single point]"
same,Potency,[16],"inconclusive: 21.3 µM [rising, single point]"
same,Potency,[4],"inconclusive: 26.8 µM [activator, single point]"
same,Potency,[3],"inconclusive: 26.8 µM [activator, single point]"
same,Potency,[6],"inconclusive: 21.3 µM [cytotoxic, partial curve]"
CC(=O)CCC(C)=O,Potency,[1],inactive
same,Potency,[2],inactive
ClCBr,Potency,[1],inactive
O=C(O)c1ccccc1C(=O)Nc1cccc2ccccc12,Potency,[1],inactive
C=CC(=O)OCC(C)O (stereo unspecified),Potency,[1],inactive
Nc1ccc(Sc2ccc(N)cc2)cc1,Potency,[1],"inconclusive: 4.36 µM [activator, partial curve]"
same,Potency,[2],"inconclusive: 4.36 µM [activator, partial curve]"
same,Potency,[16],"inconclusive: 61.6 µM [rising, partial curve, poor fit]"
same,Potency,[4],"inconclusive: 12.3 µM [activator, single point]"
same,Potency,[3],active: 4.36 µM
same,Potency,[14],"inconclusive: 9.77 µM [activator, single point]"
same,Potency,[18],"inconclusive: 21.9 µM [activator, single point]"
same,Potency,[10],"inconclusive: 12.2 µM [inhibitor, full curve]"
BrC(Br)C(Br)(Br)Br,Potency,[1],"inconclusive: 34.9 µM [activator, partial curve, poor fit]"
same,Potency,[2],"inconclusive: 39.1 µM [activator, partial curve, poor fit]"
same,Potency,[4],"inconclusive: 55.3 µM [activator, single point]"
same,Potency,[3],"inconclusive: 34.9 µM [activator, partial curve, poor fit]"
same,Potency,[14],"inconclusive: 49.3 µM [activator, single point]"
CCOP(=S)(OCC)Oc1cc(Cl)c(Br)cc1Cl,Potency,[8],inactive
same,Potency,[6],"inconclusive: 49 µM [cytotoxic, partial curve, poor fit]"
same,Potency,[19],"inconclusive: 54.5 µM [inhibitor, partial curve]"
CC(C)(C)C(O)(CCc1ccc(Cl)cc1)Cn1cncn1 (stereo unspecified),Potency,[1],"inconclusive: 55.6 µM [activator, single point] and inconclusive: 61.6 µM [activator, single point]"
same,Potency,[2],"inconclusive: 49.6 µM [activator, single point] and inconclusive: 54.9 µM [activator, single point]"
same,Potency,[3],"inconclusive: 49.6 µM [activator, single point] and inconclusive: 61.6 µM [activator, single point]"
same,Potency,[6],active: 49.6 µM and active: 54.9 µM
same,Potency,[7],"inconclusive: 49.6 µM [cytotoxic, partial curve, poor fit] and inconclusive: 54.9 µM [cytotoxic, single point]"
CCC(CC)Nc1c([N+](=O)[O-])cc(C)c(C)c1[N+](=O)[O-],Potency,[1],"inconclusive: 54.9 µM [activator, single point]"
same,Potency,[2],"inconclusive: 54.9 µM [activator, single point]"
same,Potency,[6],"inconclusive: 62.5 µM [cytotoxic, single point]"
same,Potency,[7],"inconclusive: 55.7 µM [cytotoxic, single point]"
c1ccc(-c2cccc(-c3ccccc3)c2)cc1,Potency,[1],"inconclusive: 61.7 µM [activator, single point]"
same,Potency,[6],"inconclusive: 43.6 µM [cytotoxic, partial curve, poor fit]"
O=[N+]([O-])c1c2ccccc2cc2ccccc12,Potency,[1],"inconclusive: 60.9 µM [activator, single point]"
same,Potency,[4],active: 5.43 µM
same,Potency,[5],inactive
same,Potency,[14],active: 5.43 µM
same,Potency,[12],"inconclusive: 50.1 µM [activator, single point]"
